# Experimental data from the supplement of paper PMC8821664.
# Where a name gives a salt, the structure may show the parent alone. This is one part of the list. Many values rest on one well or one pass, so single values are uncertain.
# Test system: Beas-2B AQP5-HiBiT reporter cells
# Assay: AQP5-HiBiT luminescence relative to vehicle (ratio to vehicle); higher = higher AQP5-HiBiT protein abundance
# Conditions: 10 µM; 18 h
# 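Further: monoclonal Beas-2B line stably carrying CMV promoter-driven AQP5-HiBiT, 5,000 cells per well in 384-well plates, lytic HiBiT plus LgBiT NanoLuc luminescence, FDA-approved drug library screen.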
row,Compound,AQP5-HiBiT luminescence
1,CN1C2CCCC1CC(NC(=O)c1nn(C)c3ccccc13)C2 (centres undefined) [Granisetron hydrochloride],1.16
2,CC(S)C(=O)NCC(=O)O (centres undefined) [Tiopronin],1.01
3,NS(=O)(=O)c1cc2c(cc1C(F)(F)F)NC(Cc1ccccc1)NS2(=O)=O (centres undefined) [Bendroflumethiazide],1.89
4,CC(COc1ccccc1)N(CCCl)Cc1ccccc1 (centres undefined) [Phenoxybenzamine hydrochloride],0.927
5,CC[C@H]1OC(=O)[C@H](C)[C@@H](O[C@H]2C[C@@](C)(OC)[C@@H](O)[C@H](C)O2)[C@H](C)[C@@H](O[C@@H]2O[C@H](C)C[C@H](N(C)C)[C@H]2O)[C@](C)(O)C[C@@H](C)CN(C)[C@H](C)[C@@H](O)[C@]1(C)O [Azithromycin],1.22
6,CCCCNc1cc(C(=O)O)cc(S(N)(=O)=O)c1Oc1ccccc1 [Bumetanide],0.88
7,CCCCC(O)c1ccccc1 (centres undefined) [Fenipentol],1.09
8,CN1CCC[C@@H]1Cc1c[nH]c2ccc(CCS(=O)(=O)c3ccccc3)cc12 [Eletriptan HBr],1.07
9,Cc1cc2c(s1)Nc1ccccc1N=C2N1CCN(C)CC1 [Olanzapine],1.46
10,CN(C/C=C/c1ccccc1)Cc1cccc2ccccc12 [Naftifine hydrochloride],0.708
11,CN(C)CCCN1c2ccccc2Sc2ccc(C(F)(F)F)cc21 [Triflupromazine hydrochloride],1.22
12,CN(C)CCC(c1ccccc1)c1ccccn1 (centres undefined) [Pheniramine maleate],0.848
13,NC(=O)c1cnccn1 [Pyrazinamide],1.11
14,NCCCC(N)(C(=O)O)C(F)F (centres undefined) [Eflornithine hydrochloride Monohydrate],0.521
15,CC(C)/N=c1\cc2n(-c3ccc(Cl)cc3)c3ccccc3nc-2cc1Nc1ccc(Cl)cc1 [Clofazimine],0.58
16,COc1ccc2cc([C@H](C)C(=O)O)ccc2c1 [Naproxen sodium],0.639
17,Oc1ccc(OCc2ccccc2)cc1 [Monobenzone],0.467

row,Compound,AQP5-HiBiT luminescence
1,"COc1cc2c(cc1Cc1cccc(Cl)c1F)c(=O)c(C(=O)O)cn2[C@H](CO)C(C)C [Elvitegravir(GS-9137, JTK-303)]",0.615
2,CC(C)(O)c1ccccc1CC[C@@H](SCC1(CC(=O)O)CC1)c1cccc(/C=C/c2ccc3ccc(Cl)cc3n2)c1 [Montelukast],0.914
3,c1ccc2c(CC3=NCCN3)cccc2c1 [Naphazoline hydrochloride],1.27
4,CC(C)(O)c1ccccc1CC[C@@H](SCC1(CC(=O)O)CC1)c1cccc(/C=C/c2ccc3ccc(Cl)cc3n2)c1 [Montelukast sodium],0.861
5,CCN(CC)C(=O)[C@@]1(c2ccccc2)C[C@H]1CN [Levomilnacipran],1.02
6,CCCCCCCCCCCCCCCCCCCCCCO [Behenic alcohol],0.728
7,CNC(=O)c1cc(Oc2ccc(NC(=O)Nc3ccc(Cl)c(C(F)(F)F)c3)cc2)ccn1 [Sorafenib],0.138
8,Cc1c(-c2ccc(O)cc2)n(Cc2ccc(OCCN3CCCCCC3)cc2)c2ccc(O)cc12 [Bazedoxifene acetate],1.5
9,CCOc1cc(CC(=O)N[C@@H](CC(C)C)c2ccccc2N2CCCCC2)ccc1C(=O)O [Repaglinide],0.768
10,CC(CN1c2ccccc2Sc2ccccc21)N(C)C (centres undefined) [Promethazine],1.15
11,C[C@H](CCC(=O)O)[C@H]1CC[C@H]2[C@@H]3CC[C@@H]4C[C@H](O)CC[C@]4(C)[C@H]3CC[C@]12C [Lithocholic acid],0.966
12,N=C(NCCCCCCNC(=N)NC(=N)Nc1ccc(Cl)cc1)NC(=N)Nc1ccc(Cl)cc1 [Chlorhexidine],0.406
13,Oc1ncnc2[nH]ncc12 [Allopurinol],0.907
14,Nc1ncnc2c1ncn2[C@@H]1O[C@H](CO)[C@@H](O)[C@@H]1O [Vidarabine],0.729
15,CO[C@H]1/C=C/O[C@@]2(C)Oc3c(C)c(O)c4c(O)c(c5c(nc6cc(C)ccn65)c4c3C2=O)NC(=O)/C(C)=C\C=C\[C@H](C)[C@H](O)[C@@H](C)[C@@H](O)[C@@H](C)[C@H](OC(C)=O)[C@@H]1C [Rifaximin],1.03
16,CN(C)CCC[C@@]1(c2ccc(F)cc2)OCc2cc(C#N)ccc21 [Escitalopram],1.2
17,CC(=O)Nc1ccc(O)cc1 [Acetaminophen],0.945
